Laboratory results published in paper PMC4344513.
No constants are given. Whether binding was seen depends on the method and setting. For some of these results: In cells and extracts the contact can be indirect. Some entries that bind do so weakly or less than the wild type. For some of these results: Tags and fused reporters may be left off the sequences shown.

Amino acid sequences for entries named in this document (tags omitted).
UniProt P49005: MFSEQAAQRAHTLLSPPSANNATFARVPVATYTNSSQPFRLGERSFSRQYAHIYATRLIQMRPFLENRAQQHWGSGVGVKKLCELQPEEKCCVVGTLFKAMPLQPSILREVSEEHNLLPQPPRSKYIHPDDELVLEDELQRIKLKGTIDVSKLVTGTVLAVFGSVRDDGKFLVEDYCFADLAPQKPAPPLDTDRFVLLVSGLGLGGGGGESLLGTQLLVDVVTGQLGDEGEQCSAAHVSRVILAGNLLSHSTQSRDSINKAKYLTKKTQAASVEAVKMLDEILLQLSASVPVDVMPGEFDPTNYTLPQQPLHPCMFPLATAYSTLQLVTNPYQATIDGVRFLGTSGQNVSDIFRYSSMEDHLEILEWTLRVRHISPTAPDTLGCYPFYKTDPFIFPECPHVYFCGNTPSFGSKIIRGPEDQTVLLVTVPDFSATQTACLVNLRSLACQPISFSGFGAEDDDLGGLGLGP
UniProt P28340: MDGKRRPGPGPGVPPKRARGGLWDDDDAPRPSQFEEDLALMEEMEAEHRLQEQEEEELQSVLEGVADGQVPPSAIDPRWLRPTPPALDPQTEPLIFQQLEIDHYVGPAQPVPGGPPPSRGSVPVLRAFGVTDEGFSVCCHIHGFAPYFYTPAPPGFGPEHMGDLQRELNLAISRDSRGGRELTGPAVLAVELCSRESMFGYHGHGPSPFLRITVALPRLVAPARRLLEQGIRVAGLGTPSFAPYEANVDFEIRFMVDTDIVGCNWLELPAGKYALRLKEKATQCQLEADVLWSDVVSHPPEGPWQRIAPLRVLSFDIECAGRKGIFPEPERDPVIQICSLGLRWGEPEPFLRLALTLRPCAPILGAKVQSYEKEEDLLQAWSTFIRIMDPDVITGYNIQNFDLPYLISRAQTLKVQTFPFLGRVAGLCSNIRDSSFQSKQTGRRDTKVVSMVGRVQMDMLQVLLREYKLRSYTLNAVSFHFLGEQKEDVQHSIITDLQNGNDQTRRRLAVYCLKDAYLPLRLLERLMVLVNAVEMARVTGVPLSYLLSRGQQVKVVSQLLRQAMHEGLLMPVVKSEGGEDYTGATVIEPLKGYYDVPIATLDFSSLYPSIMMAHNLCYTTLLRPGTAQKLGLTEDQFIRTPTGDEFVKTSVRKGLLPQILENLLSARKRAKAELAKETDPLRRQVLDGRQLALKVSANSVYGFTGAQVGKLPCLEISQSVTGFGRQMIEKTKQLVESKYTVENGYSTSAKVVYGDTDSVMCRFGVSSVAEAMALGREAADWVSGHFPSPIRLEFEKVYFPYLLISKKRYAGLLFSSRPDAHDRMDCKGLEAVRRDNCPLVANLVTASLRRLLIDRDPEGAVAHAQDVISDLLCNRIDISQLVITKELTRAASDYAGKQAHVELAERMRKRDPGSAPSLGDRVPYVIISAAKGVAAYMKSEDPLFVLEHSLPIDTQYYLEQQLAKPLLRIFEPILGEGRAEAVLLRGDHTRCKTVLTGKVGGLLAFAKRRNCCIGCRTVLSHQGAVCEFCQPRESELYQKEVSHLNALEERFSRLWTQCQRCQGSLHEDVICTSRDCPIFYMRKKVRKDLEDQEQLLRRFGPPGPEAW

How the values were obtained:
[1] = molecular target: POLD2 fused to the GAL4-DNA binding domain (in pGBKT7) (human) (UniProt P49005); assay: two-hybrid; S. cerevisiae AH109; Polη and its mutants as GAL4-activation domain fusions (pACT2), Polδ subunits as GAL4-DNA binding domain fusions (pGBKT7); growth on quadruple drop out medium (-W-L-A-H)
[2] = molecular target: T1, POLD3 fused to the GAL4-DNA binding domain (human) (UniProt Q15054); assay: as above
T1 sequence: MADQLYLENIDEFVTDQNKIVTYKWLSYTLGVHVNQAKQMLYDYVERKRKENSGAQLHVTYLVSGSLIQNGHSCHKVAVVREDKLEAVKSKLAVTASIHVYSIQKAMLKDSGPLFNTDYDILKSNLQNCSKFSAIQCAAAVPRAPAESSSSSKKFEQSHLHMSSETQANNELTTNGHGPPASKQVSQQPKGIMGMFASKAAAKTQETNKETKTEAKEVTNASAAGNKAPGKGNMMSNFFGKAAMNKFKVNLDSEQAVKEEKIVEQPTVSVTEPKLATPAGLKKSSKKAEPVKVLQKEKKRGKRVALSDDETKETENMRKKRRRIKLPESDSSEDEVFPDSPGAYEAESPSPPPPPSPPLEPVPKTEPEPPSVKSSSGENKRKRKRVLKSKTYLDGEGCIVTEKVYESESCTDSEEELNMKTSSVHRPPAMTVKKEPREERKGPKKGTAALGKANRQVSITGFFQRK

[3] = molecular target: POLD1 fused to the GAL4-DNA binding domain (human) (UniProt P28340); assay: as above
[4] = molecular target: T2, POLD4 fused to the GAL4-DNA binding domain (human) (UniProt Q9HCU8); assay: as above
T2 sequence: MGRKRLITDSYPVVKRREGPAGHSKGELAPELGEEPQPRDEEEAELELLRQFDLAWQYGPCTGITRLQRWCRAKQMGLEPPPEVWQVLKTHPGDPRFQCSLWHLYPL

[5] = molecular target: POLD2 endogenous in XPV cells (human (endogenous in XP30RO)) (UniProt P49005); assay: proximity ligation; Polη/POLD2 PLA (rabbit anti-Polη, goat anti-POLD2) on CSK-extracted nuclei of XPV cells stably expressing Polη forms, UV-irradiated (20 J/m^2), processed after 6 h
[6] = molecular target: POLD2 endogenous in XPV cells (human (endogenous in XP30RO)) (UniProt P49005); assay: proximity ligation; Polη/POLD2 PLA (rabbit anti-Polη, goat anti-POLD2) on CSK-extracted nuclei of XPV cells stably expressing Polη forms, non-irradiated
[7] = molecular target: POLD2 fused to the GAL4-DNA binding domain (in pGBKT7) (human), P49005; assay: two-hybrid; S. cerevisiae AH109; Polη and its mutants as GAL4-activation domain fusions (pACT2), Polδ subunits as GAL4-DNA binding domain fusions (pGBKT7); growth on quadruple drop out medium (-W-L-A-H); conditions: remark: other sources report otherwise

B1: Polη full length fused to the GAL4-activation domain (in pACT2) (protein, UniProt Q9Y253 1-713)
chain: MATGQDRVVALVDMDCFFVQVEQRQNPHLRNKPCAVVQYKSWKGGGIIAVSYEARAFGVTRSMWADDAKKLCPDLLLAQVRESRGKANLTKYREASVEVMEIMSRFAVIERASIDEAYVDLTSAVQERLQKLQGQPISADLLPSTYIEGLPQGPTTAEETVQKEGMRKQGLFQWLDSLQIDNLTSPDLQLTVGAVIVEEMRAAIERETGFQCSAGISHNKVLAKLACGLNKPNRQTLVSHGSVPQLFSQMPIRKIRSLGGKLGASVIEILGIEYMGELTQFTESQLQSHFGEKNGSWLYAMCRGIEHDPVKPRQLPKTIGCSKNFPGKTALATREQVQWWLLQLAQELEERLTKDRNDNDRVATQLVVSIRVQGDKRLSSLRRCCALTRYDAHKMSHDAFTVIKNCNTSGIQTEWSPPLTMLFLCATKFSASAPSSSTDITSFLSSDPSSLPKVPVTSSEAKTQGSGPAVTATKKATTSLESFFQKAAERQKVKEASLSSLTAPTQAPMSNSPSKPSLPFQTSQSTGTEPFFKQKSLLLKQKQLNNSSVSSPQQNPWSNCKALPNSLPTEYPGCVPVCEGVSKLEESSKATPAEMDLAHNSQSMHASSASKSVLEVTQKATPNPSLLAAEDQVPCEKCGSLVPVWDMPEHMDYHFALELQKSFLQPHSSNPQVVSAVSHQGKRNPKSPLACTNKRPRPEGMQTLESFFKPLTH
- binding [1]: binds
- binding [2]: no binding
- binding [3]: no binding
- binding [4]: no binding

B2: Polη region spanning amino acids 393–511 fused to the GAL4-activation domain (in pACT2) (domain or fragment, UniProt Q9Y253 393-511)
chain: HKMSHDAFTVIKNCNTSGIQTEWSPPLTMLFLCATKFSASAPSSSTDITSFLSSDPSSLPKVPVTSSEAKTQGSGPAVTATKKATTSLESFFQKAAERQKVKEASLSSLTAPTQAPMSN
- binding [1]: binds

B3: wild type Polη stably expressed in XP30RO (XPV) cells (protein, UniProt Q9Y253 1-713)
chain: MATGQDRVVALVDMDCFFVQVEQRQNPHLRNKPCAVVQYKSWKGGGIIAVSYEARAFGVTRSMWADDAKKLCPDLLLAQVRESRGKANLTKYREASVEVMEIMSRFAVIERASIDEAYVDLTSAVQERLQKLQGQPISADLLPSTYIEGLPQGPTTAEETVQKEGMRKQGLFQWLDSLQIDNLTSPDLQLTVGAVIVEEMRAAIERETGFQCSAGISHNKVLAKLACGLNKPNRQTLVSHGSVPQLFSQMPIRKIRSLGGKLGASVIEILGIEYMGELTQFTESQLQSHFGEKNGSWLYAMCRGIEHDPVKPRQLPKTIGCSKNFPGKTALATREQVQWWLLQLAQELEERLTKDRNDNDRVATQLVVSIRVQGDKRLSSLRRCCALTRYDAHKMSHDAFTVIKNCNTSGIQTEWSPPLTMLFLCATKFSASAPSSSTDITSFLSSDPSSLPKVPVTSSEAKTQGSGPAVTATKKATTSLESFFQKAAERQKVKEASLSSLTAPTQAPMSNSPSKPSLPFQTSQSTGTEPFFKQKSLLLKQKQLNNSSVSSPQQNPWSNCKALPNSLPTEYPGCVPVCEGVSKLEESSKATPAEMDLAHNSQSMHASSASKSVLEVTQKATPNPSLLAAEDQVPCEKCGSLVPVWDMPEHMDYHFALELQKSFLQPHSSNPQVVSAVSHQGKRNPKSPLACTNKRPRPEGMQTLESFFKPLTH
- binding [5]: binds
- binding [6]: binds weakly

B4: Polκ (two-hybrid fusion), Q9UBT6 1-870 (protein)
chain: MDSTKEKCDSYKDDLLLRMGLNDNKAGMEGLDKEKINKIIMEATKGSRFYGNELKKEKQVNQRIENMMQQKAQITSQQLRKAQLQVDRFAMELEQSRNLSNTIVHIDMDAFYAAVEMRDNPELKDKPIAVGSMSMLSTSNYHARRFGVRAAMPGFIAKRLCPQLIIVPPNFDKYRAVSKEVKEILADYDPNFMAMSLDEAYLNITKHLEERQNWPEDKRRYFIKMGSSVENDNPGKEVNKLSEHERSISPLLFEESPSDVQPPGDPFQVNFEEQNNPQILQNSVVFGTSAQEVVKEIRFRIEQKTTLTASAGIAPNTMLAKVCSDKNKPNGQYQILPNRQAVMDFIKDLPIRKVSGIGKVTEKMLKALGIITCTELYQQRALLSLLFSETSWHYFLHISLGLGSTHLTRDGERKSMSVERTFSEINKAEEQYSLCQELCSELAQDLQKERLKGRTVTIKLKNVNFEVKTRASTVSSVVSTAEEIFAIAKELLKTEIDADFPHPLRLRLMGVRISSFPNEEDRKHQQRSIIGFLQAGNQALSATECTLEKTDKDKFVKPLEMSHKKSFFDKKRSERKWSHQDTFKCEAVNKQSFQTSQPFQVLKKKMNENLEISENSDDCQILTCPVCFRAQGCISLEALNKHVDECLDGPSISENFKMFSCSHVSATKVNKKENVPASSLCEKQDYEAHPKIKEISSVDCIALVDTIDNSSKAESIDALSNKHSKEECSSLPSKSFNIEHCHQNSSSTVSLENEDVGSFRQEYRQPYLCEVKTGQALVCPVCNVEQKTSDLTLFNVHVDVCLNKSFIQELRKDKFNPVNQPKESSRSTGSSSGVQKAVTRTKRPGLMTKYSTSKKIKPNNPKHTLDIFFK
- binding [7]: no binding

B5: Polι (two-hybrid fusion) (protein, UniProt Q9UNA4 1-740)
chain: MEKLGVEPEEEGGGDDDEEDAEAWAMELADVGAAASSQGVHDQVLPTPNASSRVIVHVDLDCFYAQVEMISNPELKDKPLGVQQKYLVVTCNYEARKLGVKKLMNVRDAKEKCPQLVLVNGEDLTRYREMSYKVTELLEEFSPVVERLGFDENFVDLTEMVEKRLQQLQSDELSAVTVSGHVYNNQSINLLDVLHIRLLVGSQIAAEMREAMYNQLGLTGCAGVASNKLLAKLVSGVFKPNQQTVLLPESCQHLIHSLNHIKEIPGIGYKTAKCLEALGINSVRDLQTFSPKILEKELGISVAQRIQKLSFGEDNSPVILSGPPQSFSEEDSFKKCSSEVEAKNKIEELLASLLNRVCQDGRKPHTVRLIIRRYSSEKHYGRESRQCPIPSHVIQKLGTGNYDVMTPMVDILMKLFRNMVNVKMPFHLTLLSVCFCNLKALNTAKKGLIDYYLMPSLSTTSRSGKHSFKMKDTHMEDFPKDKETNRDFLPSGRIESTRTRESPLDTTNFSKEKDINEFPLCSLPEGVDQEVFKQLPVDIQEEILSGKSREKFQGKGSVSCPLHASRGVLSFFSKKQMQDIPINPRDHLSSSKQVSSVSPCEPGTSGFNSSSSSYMSSQKDYSYYLDNRLKDERISQGPKEPQGFHFTNSNPAVSAFHSFPNLQSEQLFSRNHTTDSHKQTVATDSHEGLTENREPDSVDEKITFPSDIDPQVFYELPEAVQKELLAEWKRAGSDFHIGHK
- binding [1]: no binding

B6: Polη F1* stably expressed in XP30RO (XPV) cells (protein, UniProt Q9Y253 1-713)
chain: MATGQDRVVALVDMDCFFVQVEQRQNPHLRNKPCAVVQYKSWKGGGIIAVSYEARAFGVTRSMWADDAKKLCPDLLLAQVRESRGKANLTKYREASVEVMEIMSRFAVIERASIDEAYVDLTSAVQERLQKLQGQPISADLLPSTYIEGLPQGPTTAEETVQKEGMRKQGLFQWLDSLQIDNLTSPDLQLTVGAVIVEEMRAAIERETGFQCSAGISHNKVLAKLACGLNKPNRQTLVSHGSVPQLFSQMPIRKIRSLGGKLGASVIEILGIEYMGELTQFTESQLQSHFGEKNGSWLYAMCRGIEHDPVKPRQLPKTIGCSKNFPGKTALATREQVQWWLLQLAQELEERLTKDRNDNDRVATQLVVSIRVQGDKRLSSLRRCCALTRYDAHKMSHDAFTVIKNCNTSGIQTEWSPPLTMLFLCATKFSASAPSSSTDITSFLSSDPSSLPKVPVTSSEAKTQGSGPAVTATKKATTSLESAAQKAAERQKVKEASLSSLTAPTQAPMSNSPSKPSLPFQTSQSTGTEPFFKQKSLLLKQKQLNNSSVSSPQQNPWSNCKALPNSLPTEYPGCVPVCEGVSKLEESSKATPAEMDLAHNSQSMHASSASKSVLEVTQKATPNPSLLAAEDQVPCEKCGSLVPVWDMPEHMDYHFALELQKSFLQPHSSNPQVVSAVSHQGKRNPKSPLACTNKRPRPEGMQTLESFFKPLTH
- binding [5]: no binding
